Laboratory results from PubChem BioAssay AID1346428 (National Center for Advancing Translational Sciences (NCATS), 2018).
Several values for one entry are separate records, joined by “and”; a condition that tells them apart may be missing. Equal values may be shown once. Among all 48,000 compounds or so, about 1,200 (2.5%) were called active. Inconclusive results (about 2%) are left out.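 How the source made its calls: active means activation of at least 60% and not above a set upper limit (about 1 call in 100 departs from these limits); inconclusive means activation of 40% to 60%, or above that upper limit; inactive means activation under 40%.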 The list shows a part of the results.

Biological target: Probable G-protein coupled receptor 32 (Homo sapiens) (UniProt O75388)
UniProt O75388, sequence (O75388 whole entry, looked up): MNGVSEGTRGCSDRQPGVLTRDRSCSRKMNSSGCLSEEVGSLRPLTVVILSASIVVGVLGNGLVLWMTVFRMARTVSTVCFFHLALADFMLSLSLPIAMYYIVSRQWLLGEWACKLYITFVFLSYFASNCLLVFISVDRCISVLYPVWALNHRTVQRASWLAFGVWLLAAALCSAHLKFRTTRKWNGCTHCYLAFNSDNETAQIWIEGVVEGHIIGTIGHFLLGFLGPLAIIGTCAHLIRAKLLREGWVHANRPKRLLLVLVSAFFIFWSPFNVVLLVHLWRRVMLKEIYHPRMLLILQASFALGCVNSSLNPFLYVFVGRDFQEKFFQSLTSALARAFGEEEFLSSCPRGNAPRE
Assay: qHTS for Agonists of Human Resolvin D1 Receptor DRV1; further: 0% is about no effect
Details: CHO-K1 GPR32 beta-arrestin PathHunter luminescence, 90 min; at 76.9 µM; active compounds read high; zero percent set by DMSO-only wells
How it was run: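 Luminescent readout of beta-Gal complementation quantifies ligand-induced beta-arrestin association with GPR32 in CHO-K1 cells; 90 min compound incubation at 37 °C, detection 1 h at room temperature.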

activation, inactive:
COc1ccc(N2CC(NC(=O)/C=C\c3ccc4c(c3)OCO4)CC2=O)cc1 (configuration not stated) -5.59%, Cc1nn2c(C)c(C(=O)N3CCN(c4ccccc4F)CC3)cnc2c1-c1ccc(F)cc1 3.29%, Cc1nnc(SCc2cc(=O)n3cccc(C)c3n2)s1 -23.2%, COCCCNC(=O)c1ccc(Cn2c(=O)c3ccccc3n(CC(=O)Nc3c(C)cccc3C)c2=O)cc1 -9.17%, CCCCCCNc1nc2c(c(=O)n(C)c(=O)n2C)n1Cc1cccc(C)c1 2.59%, CCOc1cc(C(=O)Nc2ccc3nc(Nc4cccc(Cl)c4)cc(C)c3c2)cc(OCC)c1OCC 27.2%, COc1cccc(-c2nc(CS(=O)(=O)CC(=O)NCCc3ccc(OC)cc3OC)c(C)o2)c1 -26.9%, CCCC(CCC)C(=O)Nc1cccc(-c2nc3cccnc3s2)c1C -11.3%, Cc1cccc(CCNC(=O)C2CCC(CNS(=O)(=O)c3ccccc3)CC2)c1 (configuration not stated) 8.51%, CCOC(=O)c1ccc(NC(=O)c2cnn(-c3ccc(C)cc3C)c2C2CCN(C(=O)OC(C)(C)C)CC2)cc1 -9.4%, O=C(NCc1ccccc1Cl)C1CCN(S(=O)(=O)Cc2ccccc2)CC1 13.9%, COc1ccc(Cl)cc1NC(=O)CSC1=Nc2ccccc2C2=NC(CCC(=O)NCc3ccc(F)cc3)C(=O)N12 (configuration not stated) -11.5%, Cc1nc2ccn(Cc3ccco3)c(=O)c2cc1C(=O)NCc1ccccc1F -2.62%, CNS(=O)(=O)Cc1ccc2[nH]cc(CCN(C)C)c2c1 3.33%, N#Cc1ccccc1Cn1c(=O)n(CCCC(=O)NCc2ccccc2Cl)c(=O)c2ccccc21 -4.13%, CC1=C(C(=O)Nc2cccnc2)C(c2ccccc2)n2nc(SCc3ccccc3)nc2N1 (configuration not stated) -6.29%, CCC(=O)N1CCc2cc(CNS(=O)(=O)c3c(C)cc(C)cc3C)ccc21 -25.7%, Cc1ccc(Cn2nnc3sc4c(c3c2=O)CCC(C)C4)cc1 (configuration not stated) 6.99%, Cc1ccc(C)c(NC(=O)CN2C(=O)C3(SCC(=O)N3c3ccc(C)c(C)c3)c3ccccc32)c1 (configuration not stated) -6.42%, O=C(Cn1nc(-c2ccccc2)c2cnc3ccccc3c21)Nc1ccccc1 -13.9%, CC1CCc2nc3ncn(Cc4ccc(Cl)cc4)c(=O)c3cc2C1 (configuration not stated) -16.1%, Cc1ccc2nc(-c3ccc(Cl)c(NC(=O)c4ccc5c(c4)OCCO5)c3)oc2c1 17.1%, Cc1nnc(NCc2ccc(Cl)cc2)c2c1nnn2Cc1ccc(F)cc1 2.97%, COC(=O)c1ccccc1NC(=O)c1cc(-c2ccc(Cl)cc2)on1 3.47%, CCc1ccc2ncc(S(=O)(=O)c3ccc(Cl)cc3)c(N3CCN(CC)CC3)c2c1 -15.9%, Cc1nc2ccccc2n1CCc1nc2c3ccccc3nc(SCC(=O)Nc3cccc(C(F)(F)F)c3)n2n1 25%, Cc1cc(C)cc(-n2c(SCC(=O)N3CCCC3)nc3c([nH]c4ccccc43)c2=O)c1 3.26%, Cc1cc(C)nc(NS(=O)(=O)c2ccc(NC(=O)c3ccccc3O)cc2)n1 -4.51%, CCCCOc1ccc(C(=O)N2CC(=O)Nc3ccc(Br)cc3C2c2ccc(F)cc2)cc1 (configuration not stated) -22.8%, COc1ccc(Br)cc1Cn1nnc(C(=O)Nc2ccc(C)cc2C)c1N -12.1%, COc1ccc2c(Sc3ccccc3)c(C(=O)NCC(C)c3ccccc3)[nH]c2c1 (configuration not stated) -7.56%, Cc1ccccc1NC(=O)CSc1nc(-c2ccc(F)cc2)nc2c1Cc1ccccc1O2 2.7%, Cn1c(=O)n(-c2ccc3c(c2)OCO3)c2nc(-c3ccc(Cl)cc3)nc(C(N)=O)c21 -5.76%, O=C(CCC1N=C2c3ccccc3N=C(SCc3ccccc3Cl)N2C1=O)NCCc1ccccc1 (configuration not stated) 5.91%, Cc1cccc(OC(C)C(=O)Nc2nonc2-c2ccc(Br)cc2)c1C (configuration not stated) 14.2%, CCOC(=O)[C@H](CCc1ccccc1)N[C@@H](C)C(=O)N1[C@H](C(=O)O)C[C@@H]2CCC[C@@H]21 -7.75%, COc1ccc(C2=C(C)C(=O)N(Cc3ccc(C(=O)NC(C)c4ccccc4)cc3)S2(=O)=O)cc1 (configuration not stated) -17.5%, Cc1cc(=O)n2nc(N3CCC(C(=O)Nc4c(C)cccc4C)CC3)sc2n1 -24.2%, CCOc1ccc(N2CC(c3nc4ccccc4n3CCCCOc3ccc(OC)cc3)CC2=O)cc1 (configuration not stated) -22.3%, Cc1cccc(N2C(=O)CSC23C(=O)N(CC(=O)Nc2cccc(Cl)c2)c2ccccc23)c1 (configuration not stated) -0.335%, CC1CCN(S(=O)(=O)c2cc3c4c(c2)C(C)C(=O)N4CCC3)CC1 (configuration not stated) -14.5%, COc1ccc(CNC(=O)CN2C(=O)CSc3ccc(S(=O)(=O)N(C)C)cc32)cc1 -11.2%, O=C(NC1CCCCCC1)C1c2ccccc2C(=O)N1Cc1ccc(F)cc1 (configuration not stated) -1.09%, COc1ccccc1CCN1COc2c(cc3c(C)c(C)c(=O)oc3c2C)C1 6.99%, CCOC(=O)c1cc(C)n(CC2CCC(C(=O)Nc3cccc(Cl)c3)CC2)c1C (configuration not stated) -3.01%, CCc1cccc(NC(=O)Cn2c(=O)n(CCC(=O)NCc3ccccc3Cl)c(=O)c3sccc32)c1 44.6%, Oc1c(C(c2ccccc2)N2CCOCC2)sc2nc(-c3ccco3)nn12 (configuration not stated) -8.59%, CCN(CC)c1ccc(NC(=O)CN2CCN(c3ccccc3OC)CC2)cc1 -31.4%, Cc1cc(C)cc(NC(=O)c2sc3nc4n(c(=O)c3c2C)N=C(c2ccccc2)CS4)c1 -16.4%, Nc1c(C(=O)Nc2cccc(F)c2)nnn1-c1cccc(C(F)(F)F)c1 2.22%, Cc1ccc(Cl)cc1NC(=O)C(Cc1ccccc1)NS(=O)(=O)c1cccc2nsnc12 (configuration not stated) -23.5%, Cc1ccc(-c2cc3ncc(C(=O)c4cc(Cl)c(C)cc4O)cn3n2)cc1 -7.6%, CCN(C(=O)CSc1ncc2c(n1)-c1cc(Cl)ccc1N(Cc1ccccc1)S2(=O)=O)c1cccc(C)c1 7.23%, CCOc1ccc(Br)cc1C1C(C(=O)OC)=C(C)NC2=C1C(=O)c1ccccc12 (configuration not stated) -14.5%, COc1ccc(C)cc1NC(=O)c1c2c(nc3ccccc13)C(=O)N(C1CCCCC1)C2 10.4%, Cc1ccc(NS(=O)(=O)c2ccc3c(c2)CC(=O)N3)cc1Cl -20.3%, COc1ccc(OC)c(C2Nc3c(C)cc(C)cc3-c3cc(C)nn32)c1 (configuration not stated) -16.5%, CCc1c(C)sc2c1CCN(C(=O)Nc1ccccc1C(=O)OC)C2c1ccc(OC)cc1 (configuration not stated) -7.95%, Cc1ccc(Cl)cc1N1CCN(C(=O)c2cc3ccc4cccnc4c3[nH]2)CC1 -34%, CC(C)c1ccc(C2=CC(c3cccc(Cl)c3)n3c(nc4ccccc43)N2)cc1 (configuration not stated) 47.1%, CCC(CC)(CC(=O)Nc1cccc(/C=C/c2nc(C3CCC3)cs2)c1)C(=O)O -3.73%, CCn1c(=O)cc(OCC(=O)N(C)c2ccc(OC)cc2)c2ccccc21 19.1%, O=C(NCc1ccc(Cl)cc1)C1=Cc2cc(Br)ccc2OC1 20.1%, CCC(=O)N1CCc2cc(Br)cc(S(=O)(=O)N3CCCC(C(=O)Nc4cc(C)ccc4OC)C3)c21 (configuration not stated) -0.618%, CCOc1ccc(NC(=O)CN2C(=O)C(c3ccc(Cl)cc3)=NC2(C)C)cc1 4.39%, NC(=O)c1ncn([C@@H]2O[C@H](CO)[C@@H](O)[C@H]2O)n1 0.329% and -0.925%, COc1cc(OC)c(NC(=O)c2c(N3CCCC3=O)c3cc(C)ccc3n2C)cc1Cl -10.5%, COc1ccc(OC)c(CNC(=O)c2ccc3nc(C(C)C)oc3c2)c1 -30.4%, COc1ccc(Cl)cc1C(=O)Nc1ccc2nc(Nc3cccc(Cl)c3)cc(C)c2c1 -9.3%, Cc1ccccc1OCC(=O)Nc1nnc(S(=O)(=O)N2CCCC2)s1 5.36%, CCOc1ccccc1NC(=O)Cn1ncc2c([nH]c3ccccc32)c1=O -17.1%, CCn1c(=O)c2cc(C(=O)NCCCN3CCN(c4ccc(F)cc4)CC3)sc2c2ccccc21 9.76%, CC(C)Oc1ccc(CNC(=O)c2ccc3c(c2)nc2n3CCCCC2)cc1 -8%, Cc1cc(C)c(NC(=O)C(C)n2c(=O)cc(-c3ccccc3)c3c(C)nn(C)c32)c(C)c1 (configuration not stated) -9.77%, CCCCNc1ccc(-c2nc(-c3ccccn3)no2)cc1[N+](=O)[O-] -7.33%, COc1ccc(-c2nnn3c2nc(NCc2ccc(C)cc2)c2ccccc23)cc1 15%, CC(C)COCC(CN(Cc1ccccc1)c1ccccc1)N1CCCC1 (configuration not stated) 35.6% and -10.7%, CCCNC(=O)CSc1c(CCC)cnc2c1c(=O)n(C)c(=O)n2C -11.5%, CCOC(=O)c1cnc(N2CCN(c3cccc(C)c3C)CC2)c2ccccc12 -12.3%, O=C(NCCc1csc(-c2cccnc2)n1)c1ccccc1 12.1%, O=C(CN1C(=O)C2(SCC(=O)N2c2cccc(F)c2)c2ccccc21)NCCc1ccccc1 (configuration not stated) -19%, Cc1nnc2c(N3CCN(c4ccc(F)cc4)CC3)nc3ccc(C(=O)c4ccccc4)cc3n12 3.85%
